Laboratory results: the supplement of paper PMC10441789
Some of the results follow. Antibody binding of pooled human sera (four to six donors per pool; dilution not stated) to peptides of the Trypanosoma cruzi antigen TSSA on microarrays. Quantile-normalised fluorescence in arbitrary units, mean of duplicate arrays; higher = more binding. No active / inactive call. The uninfected pools are read here as the healthy donors of the same country. The strongest signals lie near the top of the scale (about 60,000).

system: pooled sera of uninfected people, Brazil; assay: antibody binding signal (normalised fluorescence) (arbitrary fluorescence units); higher = stronger serum antibody binding to peptide
Experimental: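 Microarray of overlapping 15-residue peptides of the four Trypanosoma cruzi TSSA reference variants and 8- to 13-residue peptides of TSSAII 24-62, probed with one serum pool per country.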

Row | Sequence | antibody binding signal
1 | ANGGSTSSTPPSGTE | 185
2 | STPPSGTEKKAAAGE | 450
3 | GEAPSQPGASSGEAE | 97.2
4 | PSGTENKPATGEAPS | 606
5 | PPSGTENKPATG | 1100
6 | SPSGASSGEAEASSN | 125
7 | PPSGTENKPA | 499
8 | TGEAPSQPGASSGEA | 147
9 | TGEAPSQPGA | 225
10 | EAPSQPGAS | 150
11 | SGTENKPA | 343
12 | QPGASSGEAEA | 116
13 | GGSTSSTP | 134
14 | NKPATGEAPSQ | 315
15 | APSQPGASSGEAE | 99.8
16 | TISTPPSGTEKKAAA | 235
17 | SSTPPSGTE | 96.1
18 | PATGEAPSQ | 177
19 | CTTANGGSTISTPPS | 375
20 | NKPATGEAPSQPGAS | 770

Row | Sequence | antibody binding signal
21 | TPPSGTENKPATGEA | 530
22 | EAPSQPGA | 213
23 | SSGEAEASS | 106
24 | SGEAEASSNKNDGSL | 118
25 | SSGEAEAS | 99.3
26 | TANGGSTSSTP | 198
27 | KPATGEAPSQ | 213
28 | PSQPGASSGEAEASS | 109
29 | GSTSSTPPSG | 391
30 | ANGGSTSSTPPSG | 448
31 | GGSTISTPPSGTDKK | 151
32 | GTENKPATGEA | 300
33 | NGGSTSSTPPSGTEN | 209
34 | TSSTPPSGTENK | 350
35 | APSQPGASSGE | 146
36 | TSSTPPSGTEN | 140
37 | STSSTPPS | 168
38 | STPPSGTENKPAT | 629
39 | TENKPATGEAPS | 280
40 | PSGTENKP | 504
